# Results from PubChem BioAssay AID2546 (National Center for Advancing Translational Sciences (NCATS), 2010).
# The campaign covered roughly 310,000 compounds. About 11,000 (3.5%) were called active. The shares of active, inactive and inconclusive entries below differ from those in the screen. Calls come from the whole dose curve; as a rule, active = well fitted inhibition curve with a large enough effect; inconclusive = small, poorly fitted or top-dose-only effect, or effect the other way; inactive = flat fitted curve, though single readings scatter. Potencies of inconclusive entries are left out as doubtful fits.
# Assay: VP16 counterscreen qHTS for inhibitors of ROR gamma transcriptional activity;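 note: Gal4-VP16 expression switched on by copper sulfate through the metallothionein promoter; nearly all actives have a fitted effect of over 50% in size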
# Details: Drosophila S2 Gal4-VP16 UAS-luciferase, luminescence, 20 h; activity, negative = inhibition: at 53.6 µM (top of the series)
# % is set by controls: 0 for no effect and ±100 for the full control effect; potency is the fitted concentration of half-maximal effect; tags give direction and shape of the fitted curve.
Structure (SMILES),Potency,"activity, negative = inhibition"
Cc1ccn2c(-c3csc(NCc4ccco4)n3)c(C)nc2c1,"inconclusive [inhibitor, single point]",
Cc1[nH]n(-c2ccccc2)c(=O)c1/C=N/NC(=O)COc1ccccc1[N+](=O)[O-],active: 0.631 µM,
O=C(COc1cccc(Br)c1)N/N=C/C(=O)c1ccccc1,"inconclusive [inhibitor, single point]",
N#C/C(=C\c1ccc(OCC(N)=O)cc1)c1ccccc1,"inconclusive [inhibitor, partial curve]",
CCN(c1ccccc1)S(=O)(=O)c1ccc(C(=O)N(CCCN(C)C)c2nc3c(C)cccc3s2)cc1,"inconclusive [inhibitor, single point]",
CCOC(=O)c1sc2nc3n(c(=O)c2c1C)CCCCC3,,inactive: -2.5%
Cc1ccc(S(=O)(=O)N2c3ccccc3OCC2c2ccccc2)cc1 (centres undefined),"inconclusive [inhibitor, single point]",
Cc1c(NC(=S)NC(=O)C(C)(C)C)cccc1[N+](=O)[O-],active: 20 µM,
COc1ccc(CN2CC[C@@H](N3CCOCC3)[C@H](O)C2)cc1F,,inactive: 1.3%
O=c1sc(Nc2ccccc2)nc2ccccc12,,inactive: -5.56%
O=C(N/N=C/c1c[nH]c2ccccc12)c1[nH]c2ccc(Br)cc2c1-c1ccccc1,"inconclusive [inhibitor, single point]",
Cc1nn(Cc2ccc(Cl)c(Cl)c2)c(C)c1NC(=O)c1cc(-c2ccco2)on1,"inconclusive [inhibitor, single point]",
Cc1ccccc1-c1nc(CN2CCC(C(=O)NCc3cccs3)CC2)c(C)o1,,inactive: -0.208%
CCCN(CCC)S(=O)(=O)c1cc(Br)cc2c1N(C(=O)CC)CC2,"inconclusive [inhibitor, single point]",
O=C(CNC(=S)N(CCCN1CCOCC1)Cc1cccs1)NCCN1CCOCC1,,inactive: -6.06%
CCOC(=O)c1c(NC(=O)C(=O)N/N=C/c2ccccc2O)sc2c1CCCCC2,active: 1.26 µM,
COCc1nc2ccccc2n1Cc1ccccc1,"inconclusive [inhibitor, single point]",
Cc1ccc(C(=O)Nc2nc3c(s2)CCCC3)o1,"inconclusive [inhibitor, single point]",
CC1=CC(=O)c2ccccc2C1=O,active: 7.94 µM,
Cc1cc(=O)[nH]c(N/N=C/c2c(C)nn(-c3ccccc3)c2Cl)n1,"inconclusive [inhibitor, single point]",
CCC(C)c1ccc(NC(=S)NCc2cccnc2)cc1 (centres undefined),active: 22.4 µM,
Cc1ccnc(NC(=O)c2sc3cc(Cl)ccc3c2Cl)c1,"inconclusive [inhibitor, full curve]",
CCCOc1ccc(Cc2c(Cl)nc(SC)nc2NC)cc1,active: 7.08 µM,
CCC(=O)N1c2ccc(S(=O)(=O)N3CCN(c4cc(C)ccc4C)CC3)cc2CC1C (centres undefined),,inactive: -4.14%
Cc1cccc(C)c1NC(=O)NC1(C(=O)NCc2ccncc2)CCCCC1,,inactive: -3%

Structure (SMILES),Potency,"activity, negative = inhibition"
O=C(NC(=S)Nc1c(F)cc(F)cc1Br)c1ccc2c(c1)OCCO2,"inconclusive [inhibitor, single point]",
NS(=O)(=O)c1ccc(CNC(=O)Cc2ccccc2[N+](=O)[O-])cc1,,inactive: -4.69%
COC(=O)c1cccc(NC(=S)NCc2ccc(Cl)cc2)c1,,inactive: 3.77% [at 0.365 µM]
CC(C)(C)C(=O)Nc1ccc(C(=O)N/N=C/c2ccccc2OC(=O)c2ccccc2)cc1,"inconclusive [inhibitor, single point]",
COc1ccccc1NC(=S)NCCC(c1ccccc1)c1ccccc1,"inconclusive [inhibitor, single point]",
Cc1ccc2cc(CN(CCN(C)C)C(=S)Nc3ccccc3)c(=O)[nH]c2c1C,,inactive: -11.5%
Cc1cc(C)c(C(=O)/C=C/c2cccc3ccccc23)c(=O)[nH]1,active: 12.6 µM,
O=c1oc2ccccc2c(O)c1C=NCc1ccccn1,active: 1 µM,
Cc1ccc(S(=O)(=O)NCc2cc(=O)n(C)c(=O)n2C)cc1C,"inconclusive [inhibitor, single point]",
COC(=O)c1ccc(NC(=O)Nc2cccc(F)c2)cc1,"inconclusive [activator, single point]",
CC(C)NC(=O)c1ccc2c(c1)S(=O)(=O)c1ccccc1C2=O,,inactive: 4.52%
CN(C)CCCN(C(=O)c1ccc(S(=O)(=O)N(C)C2CCCCC2)cc1)c1nc2ccc(Br)cc2s1,"inconclusive [inhibitor, single point]",
COc1ccc(C(=O)C2CCCN(Cc3cccc4c3OCO4)C2)cc1OC (centres undefined),,inactive: 10%
CC(C)CCc1noc(CN(C)CCC2CCOCC2)n1,,inactive: -10.7%
CC(CC(=O)NCCc1ccc(F)cc1)c1ccccc1 (centres undefined),"inconclusive [activator, partial curve]",
COc1ccc(C(C[N+](=O)[O-])c2c(C)cc3ccccn23)c(OC)c1 (centres undefined),"inconclusive [inhibitor, partial curve]",
Cc1ccc(C)n1-c1ccc(C(=O)Nc2ccccc2F)cc1,"inconclusive [activator, single point]",
Cc1cc(C(=O)CSc2nnc(-c3cccs3)o2)c(C)n1-c1ccccc1,"inconclusive [inhibitor, single point]",
CCOC(=O)c1nn(-c2ccc(OCC)cc2)c2nc(CC(C)C)c(C#N)c(=O)n12,,inactive: -11.1%
CC1CCN(C2=NN3C(=N)/C(=C\c4ccc(OC(=O)c5ccco5)cc4)C(=O)N=C3S2)CC1,"inconclusive [inhibitor, single point]",
COc1ccc2c(c1)C(=O)c1ccccc1CO2,"inconclusive [inhibitor, single point]",
N#CCCn1c(=O)c(-c2ccc(Cl)cc2)nc2cnc(N3CCOCC3)nc21,,inactive: 3.18%
CCc1ccc(NC(=O)Cn2nc(C(=O)O)c3ccccc3c2=O)cc1,,inactive: 5.32%
CN(C)CCCN(C(=O)c1ccc(S(=O)(=O)N2CCc3ccccc3C2)cc1)c1nc2ccc(F)cc2s1,active: 11.2 µM,
